In test [1] the target is T1, membrane-bound B Lymphocyte Stimulator on U937 plasma membrane preparations (human, UniProt Q9Y275 1-285).
T1 construct: Natural protein in plasma membrane fractions of the human cell line U937 coated on ELISA plates; also called U937 plasma membranes; U937 membranes
Briefly: phage ELISA.

For test [2], the target named is T2, B Lymphocyte Stimulator, soluble form (human) (human, UniProt Q9Y275 in part, biotinylated with NHS-biotin where used as biotinylated B Lymphocyte Stimulator).
T2 construct: Coated on plastic, captured on streptavidin plates, amine-coupled to a CM5 chip or free in solution, depending on the assay; also called BLyS; immobilized B Lymphocyte Stimulator
The test is described as follows: phage competition ELISA.

In test [3] the target is T3, biotinylated B Lymphocyte Stimulator, soluble form (human, UniProt Q9Y275 in part, biotinylated with NHS-biotin, molar ratio 20:1 biotin:protein).
T3 construct: also called bio-B Lymphocyte Stimulator; free B Lymphocyte Stimulator
Briefly: phage scFv, receptor binding inhibition on IM9 cells. Here is the method: Fifty-five μl of each appropriate phage supernatant was added to each well and the final volume in each well was 65 μl. Plates were then incubated at room temperature for 30 minutes.
Plates were washed three times in PBST and three times in PBS, tapped dry and 50 μl of streptavidin-Delfia (Wallac) was added to each well at 1:1000 dilution in the Manufacturer's assay buffer. The plates were then incubated at room temperature for 1 hour and washed six times in Delfia wash solution (Wallac). After tapping the plates dry, 100 μl per well of Delfia enhancement solution (Wallac) was added. The plates were gently tapped to encourage micelle formation, incubated at room temperature for 10 minutes, and fluorescence read on a Wallac 1420 workstation at […].

B1: I008C12 (scFv)
scFv: [about 100 residues omitted here]FNPTYDILTGYYIGGYFQHWGQGTMVTVSSGGGGSGGGGSGGGGSQSVLTQPASVSGSPGQSITISCTGTSSDVGGYNYVSWYQQHPGKAPKLMIYEGSKRPSGVSNRFSGSKSGNTASLTISGLQAEDEADYYCSSYTTRSTRVFGGGTQLTVLG
As for B1, the binding result in test [1] and in test [2] was “binds” throughout.

B2: I008C12 (scFv)
scFv: [about 100 residues omitted here]FNPTYDILTGYYIGGYFQHWGQGTMVTVSSGGGGSGGGGSGGGGSQSVLTQPASVSGSPGQSITISCTGTSSDVGGYNYVSWYQQHPGKAPKLMIYEGSKRPSGVSNRFSGSKSGNTASLTISGLQAEDEADYYCSSYTTRSTRVFGGGTQLTVLG
Turning to B2, the binding result in test [3] is listed as “binds”.

For the origin of these results see patent US20110293610A1 (published 2011).
